Source: the antibiotic and cytotoxicity screens of Wong et al. (2023)
This is one part of the list.

The molecules below were run on HepG2 (assay: cytotoxicity call (relative viability < 0.9)). Conditions: 10 µM.

SMILES | cytotoxicity call
COc1ccc(-c2ccc3c(c2)O[C@H](CN(C)CC2CCOCC2)[C@H](C)CN([C@H](C)CO)S3(=O)=O)cc1 | inactive
C[C@H](CO)N1C[C@H](C)[C@@H](CN(C)C(=O)Nc2ccc(C(F)(F)F)cc2)Oc2ccc(NC(=O)Nc3ccc(C(F)(F)F)cc3)cc2C1=O | active
COc1ccc(NC(=O)N(C)C[C@H]2Oc3ccc(NC(=O)Nc4cccc5ccccc45)cc3CC(=O)N([C@H](C)CO)C[C@H]2C)cc1 | inactive
NCC[C@H]1CC[C@H](NC(=O)Nc2ccc(F)cc2)[C@@H](CO)O1 | inactive
CN(C)CCCNC(=O)C[C@H]1CC[C@@H]2[C@H](COc3ccc(NC(=O)NC4CCCC4)cc3C(=O)N2C)O1 | inactive
C[C@@H]1CN([C@@H](C)CO)C(=O)c2cc(NC(=O)Nc3ccc(C(F)(F)F)cc3)ccc2O[C@H]1CN(C)Cc1ccccc1 | inactive
CCC(=O)NNC(=O)c1cccc(O)c1 | inactive
Cc1noc(C)c1NC(=O)N(C)C[C@@H]1Oc2ccc(NS(=O)(=O)c3c(C)noc3C)cc2CC(=O)N([C@H](C)CO)C[C@H]1C | inactive
COc1ccc(S(=O)(=O)N(C)C[C@@H]2OCCCC[C@H](C)Oc3ccc(NC(=O)C4CCCCC4)cc3C(=O)N([C@@H](C)CO)C[C@H]2C)cc1 | inactive
C[C@H]1CN([C@@H](C)CO)C(=O)CCCn2nncc2CO[C@@H]1CN(C)S(=O)(=O)c1ccc(Cl)cc1 | inactive
CN1C(=O)c2cc(NC(=O)C3CCOCC3)ccc2OC[C@@H]2O[C@@H](CC(=O)NCCc3ccncc3)CC[C@H]21 | inactive
